Assay results reported in patent US20100190717A1, “USE OF MELANIN CONCENTRATING HORMONE AND MET-ENKEPHALIN AS THERAPEUTIC AGENTS” (priority 2007, published 2010).

Tested on: RAW 264.7 (Mouse leukaemic monocyte macrophage cell line) cells
Assay: Phagocytosis assay (Fluorescein-labeled Escherichia coli, flow cytometry)
Format: cell-based
Details: 10 micrograms per ml; RAW 264.7, Fluorescein-labeled E. coli

Row | Substance | increase on the phagocytic activity of murine macrophages [%]
1 | Tyr-Gly-Gly-Phe-Met-OH [peptide 2] | 51.4
2 | Asp-Phe-Asp-Met-Leu-Arg-Cys-Met-Leu-Gly-Arg-Val-Tyr-Arg-Pro-Cys-Trp-Gln-Val-OH (DFDMLRCMLGRVYRPCWQV-OH; ends and bridges not checked) [peptide 1, melanin concentrating hormone (MCH), commercially available peptide] | 54.3

Ends that are not written are not given here.
